# Experimental data: PubChem BioAssay AID1508642 (National Center for Advancing Translational Sciences (NCATS), 2021)
# The campaign covered roughly 43,000 compounds. About 200 (0.47%) were called active. Not shown: some 12% with an inconclusive outcome. Calls come from the whole dose curve; as a rule, active = well fitted cell-killing curve with a large enough effect; inconclusive = small, poorly fitted or top-dose-only effect, or effect the other way; inactive = flat fitted curve, though single readings scatter. This is one part of the list.
# Test: Cell viability qHTS assay in S16 Pmp22-F2sN cells; note: nearly all actives have a fitted effect of over 65% in size
# Conditions: S16 Pmp22-F2sN Schwann cells (luciferase reporters placed in the Pmp22 gene) viability, CellTiter-Glo, 24 h; series mostly up to 57.5 µM; activity change, negative = cytotoxicity: at the top concentration
# Method in brief: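 Rat S16 Schwann reporter line, 24 h treatment with library compounds delivered at 23 nL per well. Cell viability by CellTiter-Glo luminescence.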
# % is set by controls: 0 for no effect and ±100 for the full control effect.
row,SMILES,"activity change, negative = cytotoxicity"
1,Cc1ccc2c(c1)c1c(c(=O)n(-c3cccc(Cl)c3)c(=O)n1CC(N)=O)n2C,inactive: 3.11%
2,COc1cc(Nc2nc3c(S(=O)(=O)c4cccc(Cl)c4)nnn3c3ccsc23)cc(OC)c1,inactive: 3.68%
3,COc1ccc(OCC(=O)Nc2cc(-c3nc4ccccc4o3)ccc2Cl)cc1,inactive: 12.9%
4,COC(=O)c1ccccc1NC(=O)Cn1c(=O)n(-c2ccc(C)cc2)c(=O)c2ccccc21,inactive: -6.33%
5,Cc1ccccc1OCCSc1nc2ccc(NC(=O)c3ccco3)cc2s1,inactive: -2.61%
6,O=C1Nc2ccccc2C1Cc1ccc(Br)cc1 (stereo not drawn),inactive: -26.6%
7,CC1CCc2noc(NC(=O)c3ccc([N+](=O)[O-])cc3)c2C1 (stereo not drawn),inactive: -1.67%
8,Cc1ccc(NC(=O)CN2C(=O)c3ccccc3Sc3ccc(C(=O)N4CCOCC4)cc32)cc1C,inactive: 11.1%
9,Cc1ccc(NC(=O)CSc2nc3nccnc3c(=O)n2CCc2c[nH]c3ccccc23)cc1C,inactive: 8.77%
10,CCOc1ccc(NC(=O)CN(c2ccc(C)cc2)S(=O)(=O)c2cccs2)cc1,inactive: -1.23%
11,Cc1ccc(-c2nc(CS(=O)(=O)CC(=O)N3CCN(c4ccccc4)CC3)c(C)o2)cc1,inactive: -1.55%
12,Cc1cccc(NC(=O)CSc2nc3ccc(NC(=O)CCc4ccccc4)cc3s2)c1,inactive: 5.62%
13,COc1ccc(CNC(=O)c2cc3c(=O)n(Cc4ccc(OC)cc4)ccc3nc2C)cc1,inactive: 16.1%
14,COc1cc(Br)cc2cc(S(=O)(=O)c3ccccc3)c(=O)oc12,inactive: -3.63%
15,CCCSCCCNC(=O)c1sc2nc(C)cc(C)c2c1-n1cccc1,inactive: -9.43%
16,Cc1ccc(-c2noc(-c3cccnc3N(C)Cc3ccc(Cl)cc3)n2)cc1,inactive: 1.24%
17,COc1cccc(NCc2nnc3n2CCCCC3)c1,inactive: -15.2%
18,CCc1ccc(C(=O)c2cn(CC(=O)Nc3cc(OC)cc(OC)c3)c3ccc(CC)cc3c2=O)cc1,inactive: -4.15%
19,CCOc1ccc(CNCCSc2nnnn2C)cc1,inactive: 10.8%
20,COc1cccc(CNC(=O)c2ccc3nc(CCc4ccccc4)oc3c2)c1OC,inactive: 11%
21,CCc1cccc(C)c1Nc1c(-c2ccc(N(C)C)cc2)nc2cnccn12,inactive: -19.6%

row,SMILES,"activity change, negative = cytotoxicity"
1,CCCOc1ccc(CN2C(=O)C(=O)c3cccc(C)c32)cc1,inactive: -7.31%
2,COc1ccc(-c2nc3ccccc3s2)cc1NC(=O)c1cccc(F)c1,inactive: 5.37%
3,Cc1ccc(-n2nc(C)c3c(C)c(CCC(=O)NCc4ccc(Cl)cc4)c(C)nc32)cc1,inactive: 12.4%
4,COc1ccc(CNC(=O)C(CC(C)C)NS(=O)(=O)c2ccc3c(c2)CCN3C(C)=O)cc1 (stereo not drawn),inactive: -2.56%
5,COc1ccc(-c2cc(C(=O)Oc3ccc(C#N)cc3)no2)cc1,inactive: 5.64%
6,CCCc1cc(=O)[nH]c(SCc2nc(-c3ccccc3)no2)n1,inactive: -2.71%
7,O=S1(=O)c2ccccc2N(Cc2ccc(F)cc2)c2ccccc21,inactive: -17.2%
8,COc1ccc(Nc2nnc(-n3nc(C)cc3C)c3ccccc23)cc1,inactive: 4.98%
9,O=C(NCCOCCn1c(=O)oc2ccccc21)Nc1ccc(F)cc1F,inactive: 18.6%
10,CC(=O)N1CCc2cc(S(=O)(=O)NC(Cc3ccccc3)C(=O)Nc3cc(C)cc(C)c3)ccc21 (stereo not drawn),inactive: -8.27%
11,COc1ccccc1N1CCN(Cc2nc(-c3cc(OC)c(OC)c(OC)c3)no2)CC1,inactive: -0.747%
12,CC1CCCCN1CCCNC(=O)Cn1ncc2c3ccccc3n(Cc3ccccc3)c2c1=O (stereo not drawn),inactive: 15.8%
13,COc1ccccc1C1C(C(=O)Nc2ccccc2)=C(C)Nc2nc(-c3ccccc3)nn21 (stereo not drawn),inactive: 2.33%
14,O=C(Cn1ncc2c3ccccc3n(Cc3ccccc3)c2c1=O)NCCCN1CCCCC1,inactive: 2.19%
15,Cc1ccc(Cl)cc1N1CCN(C(=O)CCc2nnc3n(C)c(=O)c4ccccc4n23)CC1,inactive: -3.67%
16,CCN(Cc1ccccc1)C(=O)c1cn(-c2cccc(OC)c2)c(=O)c2ccccc12,inactive: 8.68%
17,Cc1ccc(NC(=O)CSc2nc3n[nH]c(C)c3c(=N)n2-c2ccccc2C)cc1C,inactive: -2.06%
18,CCOc1cccc(C2c3c(oc4ccc(F)cc4c3=O)C(=O)N2c2cc(C)ccn2)c1 (stereo not drawn),inactive: -0.316%
19,CC1CCN(c2nc3ccccc3nc2C(F)(F)F)CC1,inactive: 2.71%
20,Cc1cccc(CN2C(=O)c3ccccc3Sc3ccc(C(=O)NCCCN4CCOCC4)cc32)c1,inactive: -1.6%
21,O=C(Nc1nc2ccccc2n1CCOc1ccccc1Cl)c1ccccc1,inactive: 7.83%

row,SMILES,"activity change, negative = cytotoxicity"
1,CC1CN(C(=O)N2CCC(C(=O)NCc3ccco3)CC2)c2ccccc2O1 (stereo not drawn),inactive: 1.07%
2,CCN(CC)S(=O)(=O)c1nnc(NC(=O)c2ccc(C)cc2)s1,inactive: -1.95%
3,CCCNC(=O)C1CCC(Cn2c(=O)c3sccc3n(CC(=O)N3CCCC3)c2=O)CC1 (stereo not drawn),inactive: 1.01%
4,CCc1cccc(C)c1NC(=O)CN1C(=O)c2ccccc2Sc2ncccc21,inactive: 0.699%
5,COC(=O)c1sc2cccc(F)c2c1S(=O)(=O)Nc1cc(C)c(Cl)cc1OC,inactive: -5.87%
6,O=C(COc1ccc(Cl)cc1)Nc1ccc(-c2nc3cc(Cl)ccc3o2)c(O)c1,inactive: 8.26%
7,Cc1c(C(=O)Nc2cccc(C#N)c2)sc2nc3n(c(=O)c12)CCCCC3,inactive: -5.72%
8,CCCNC(=O)CN1C(=O)c2c(c3ccccc3n2C)C1c1ccc(OC)cc1 (stereo not drawn),inactive: -1.91%
9,COc1ccc(CNC(=O)c2cc3oc4ccccc4c3n2C)cc1OC,inactive: -3.77%
10,Cn1c(=O)c2cc(C(=O)Nc3cccc(C#N)c3)sc2c2ccccc21,inactive: 5.04%
11,COc1ccc(C2=NN(CC(=O)NCCc3ccccc3)C(=O)CC2)cc1,inactive: 3.61%
12,CCC(=O)Nc1ccccc1-c1nc2ccccc2n(CC(=O)Nc2ccc(C)c(C)c2)c1=O,inactive: 2.38%
13,CCc1ccc(NC(=O)C2CCN(S(=O)(=O)c3c(C)noc3C)CC2)cc1,inactive: 3.01%
14,COc1ccc(Cl)cc1NC(=O)c1sc2nc(-c3ccc(OC)c(OC)c3)ccc2c1N,inactive: -1.07%
15,O=C(NCc1ccccc1)c1ccc2c(c1)N(Cc1ccc(F)cc1)CCS2,inactive: -25.3%
16,COc1ccc(CCNC(=O)CSCc2nc(-c3cccc(C)c3)oc2C)cc1OC,inactive: -23.9%
17,O=C(NC1CCCC1)c1ccc(CSc2nc3cccnc3n2Cc2ccccc2)cc1,inactive: 3.35%
18,COC(=O)c1ccc(NC(=O)NC(C)c2c(-n3cccc3)sc(C)c2C)cc1 (stereo not drawn),inactive: 1.92%
19,O=C(Nc1ccc(Br)cc1F)c1cc2nc(-c3ccco3)cc(C(F)(F)Cl)n2n1,inactive: 3.11%
20,Cc1cc(Br)ccc1NC(=O)CCNS(=O)(=O)c1cccc2nonc12,inactive: -2.17%
21,COc1ccc2c(c1)CC(C(=O)Nc1ccc(OC)cc1OC)CO2 (stereo not drawn),inactive: -2.55%
